Assay results reported in PubChem BioAssay AID1030 (National Center for Advancing Translational Sciences (NCATS), 2008).
Screen size: about 220,000 compounds; about 16,000 (7.3%) were called active. This list was built around the results that the source calls inconclusive (neither active nor inactive); the mix of calls is not that of the screen. Calls come from the whole dose curve; as a rule, active = well fitted inhibition curve with a large enough effect (not every such curve was filed as active); inconclusive = small, poorly fitted or top-dose-only effect, or another doubt; inactive = no such curve, though single readings can be large or run the other way. Potencies of inconclusive entries are left out as doubtful fits.

The compounds below were run against Aldehyde dehydrogenase 1A1 (Homo sapiens) (UniProt P00352) (assay: qHTS Assay for Inhibitors of Aldehyde Dehydrogenase 1 (ALDH1A1)). Details: Purified ALDH1A1, NADH fluorescence, propionaldehyde substrate; series mostly up to 75.3 µM; activity, negative = inhibition: at the top concentration.
UniProt P00352, sequence (P00352 whole entry, looked up): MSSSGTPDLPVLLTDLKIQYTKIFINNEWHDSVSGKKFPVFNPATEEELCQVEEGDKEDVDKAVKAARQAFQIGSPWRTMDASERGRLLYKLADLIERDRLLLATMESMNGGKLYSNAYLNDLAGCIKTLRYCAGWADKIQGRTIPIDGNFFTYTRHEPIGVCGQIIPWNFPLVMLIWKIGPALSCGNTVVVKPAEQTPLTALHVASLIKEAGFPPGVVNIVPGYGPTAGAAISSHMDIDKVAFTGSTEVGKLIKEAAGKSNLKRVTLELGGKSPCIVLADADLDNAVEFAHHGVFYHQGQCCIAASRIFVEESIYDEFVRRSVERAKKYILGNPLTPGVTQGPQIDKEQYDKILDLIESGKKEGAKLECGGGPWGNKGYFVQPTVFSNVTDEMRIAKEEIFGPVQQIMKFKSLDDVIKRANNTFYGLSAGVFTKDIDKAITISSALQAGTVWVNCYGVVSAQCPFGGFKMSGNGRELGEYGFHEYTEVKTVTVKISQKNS
Potency is the fitted concentration of half-maximal effect; tags give direction and shape of the fitted curve.
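Throughout, for activity, negative = inhibition: plate controls were no enzyme wells and a reference inhibitor.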

Compound	Potency	activity, negative = inhibition
N#CC1=C(S)N(c2ccccc2)C(c2ccc(-c3ccccc3Cl)o2)NC1=O (stereo unspecified)	inconclusive [inhibitor, single point]	
COc1cc2c(cc1OC)CN(Cc1nc3ccsc3c(=O)[nH]1)CC2	inconclusive [inhibitor, partial curve]	
C=CCNC(=S)/C(=C(/[O-])c1ccc([N+](=O)[O-])cc1)[n+]1ccccc1	inconclusive [inhibitor, single point]	
CCN(CC)S(=O)(=O)c1ccc(N2CCCC2)c(NS(=O)(=O)c2ccccc2)c1	active: 0.355 µM	
CCOc1ccc(Cl)cc1S(=O)(=O)n1cnc2ccccc21		inactive: 12.5%
COc1cccc(-c2cncnc2NCCc2cnc[nH]2)c1		inactive: 1.53%
O=C(N/N=C/c1cn(-c2ccccc2)nc1-c1cccs1)c1ccc(Cl)cc1	inconclusive [inhibitor, single point]	
COc1ccc(NC(=S)N(CCc2nc3cc(C)c(C)cc3[nH]2)Cc2cccnc2)cc1	active: 12.6 µM	
Cc1ccc(/C=C/S(=O)(=O)N2CCC(C(=O)O)CC2)cc1		inactive: -2.04%
COc1cc2nc(N3CCN(C(=O)[C@H]4CCCO4)CC3)nc(N)c2cc1OC	inconclusive [inhibitor, partial curve]	
O=C(NCCc1ccccn1)c1ccc(COc2ccccc2)o1	inconclusive [inhibitor, single point]	
COC(=O)c1[nH]c2cccc(OC)c2c1NC(=O)CN1CCOCC1	inconclusive [inhibitor, single point]	
CC(C)CCNC(=O)CN(Cc1ccco1)C(=O)c1snc(C(N)=O)c1N	inconclusive [inhibitor, partial curve]	
O=C(Oc1cccc(C(=S)N2CCCCC2)c1)c1ccccc1	active: 2.51 µM	
CCc1nnc(NS(=O)(=O)c2ccc(N/C=C/C(=O)c3ccc(OC)cc3)cc2)s1	inconclusive [inhibitor, single point]	
Cc1nnc(SCc2nc3sc4c(c3c(=O)[nH]2)CCCC4)n(N)c1=O	active: 22.4 µM	
CCOc1ccc(N=C2NN=C(c3cc(C)n(CC4CCCO4)c3C)CS2)cc1 (stereo unspecified)	inconclusive [inhibitor, single point]	
COc1cccc([C@@H]2Oc3ccc(OC)cc3C[C@H]2OC(=O)N[C@H](C)C2CCCCC2)c1		inactive: 0.185%
O=C(c1ccc2c(=O)n3c(nc2c1)CCCCC3)N1CCN(c2ccc(F)cc2)CC1	inconclusive [inhibitor, single point]	
Cc1cc(C=O)c(C)n1-c1ccc(Oc2ccc([N+](=O)[O-])cn2)cc1	active: 10 µM	
Cc1nc(NC(=O)CSc2nc3cccnc3n2C2CCCCC2)sc1C		inactive: -3.06%
COc1cc(CCC(=O)Nc2ccc(S(=O)(=O)NC3=NCCCCC3)cc2)cc(OC)c1OC	inconclusive [inhibitor, partial curve, poor fit]	
CCC(C)NC(=S)N1CCN(C)CC1 (stereo unspecified)	active: 22.4 µM	

Compound	Potency	activity, negative = inhibition
COc1ccc(/C=C/c2nc3ccccc3n2Cc2ccc(OC)c(OC)c2)cc1	inconclusive [inhibitor, partial curve]	
Cc1ccccc1-n1c(Cc2cccs2)n[nH]c1=S	inconclusive [inhibitor, full curve, poor fit]	
Cc1cc(C)cc(N(C(=O)c2snc(C(N)=O)c2N)C(C(=O)NCC2CCCO2)c2cccs2)c1 (stereo unspecified)	inconclusive [inhibitor, single point]	
CC(O)C(=O)N/N=C/c1ccccc1C(=O)O (stereo unspecified)		inactive: -4.02%
COc1ccc(OC)c(C2C(C(N)=O)=C(C)Nc3nc(-c4cccc(Cl)c4)nn32)c1 (stereo unspecified)	inconclusive [inhibitor, single point]	
COc1ccc2c(c1)N(C(=O)CSc1n[nH]c(C)n1)C(C)(C)C=C2C		inactive: 8.1%
CCSc1ncnc2c(C#N)c3n(c12)CCCCC3	active: 12.6 µM	
COc1cc2c(C(=O)N3CCCc4ccccc43)cn(C)c(=O)c2cc1OC	inconclusive [inhibitor, single point]	
CSc1ccccc1-c1nnc(-c2ccc(C)cc2)o1	inconclusive [inhibitor, partial curve]	
NC(=O)c1c(N)sc2c1CCC2	inconclusive [inhibitor, single point]	
O=C(NCc1ccncc1)Nc1ccc2c(c1)OCO2	inconclusive [inhibitor, single point]	
COc1ccc(N=Cc2ccc[nH]2)cc1	inconclusive [inhibitor, single point]	
CCOC(=O)CSc1nnc(CNC(=O)c2cccs2)n1-c1cc(C)ccc1C		inactive: -2.02%
CN1CCN(c2ncc3nc(-c4ccc(Cl)cc4)c(=O)n(CCC#N)c3n2)CC1	inconclusive [inhibitor, partial curve]	
Cc1nc(SCC(=O)Nc2c(C)n(C)n(-c3ccccc3)c2=O)n[nH]1	active: 14.1 µM	
O=C(N=Nc1ccc(NOC(=O)c2ccccc2Br)cc1)c1ccccc1O	active: 22.4 µM	
O=C1Nc2ccc(F)cc2C12Nc1ccccc1-c1nnc(SCc3ccccc3Cl)nc1O2 (stereo unspecified)	inconclusive [inhibitor, single point]	
O=C(/C=C/c1ccccc1[N+](=O)[O-])OCC(=O)c1ccccc1	inconclusive [inhibitor, partial curve, poor fit]	
Cc1ccc(CSc2nc3c(c(N(C)C)n2)CCCC3)cc1	inconclusive [inhibitor, single point]	
Cc1cc(NC(=O)CSc2cn(CCNC(=O)c3ccc(F)cc3)c3ccccc23)no1	inconclusive [inhibitor, partial curve]	
COCCNC(=O)c1cc2cc(Cl)cc(Cl)c2oc1=O	active: 25.1 µM	
CCCCOC(=O)Nc1nnc(C(C)C)s1		inactive: -4.8%
Cc1ccc(NC(=O)COC(=O)CCNS(=O)(=O)c2ccc(C)c(C)c2)cc1	inconclusive [inhibitor, single point]	
